PubChem BioAssay (NCI)
Where “and” joins values, the source holds several entries; their conditions need not be identical. Equal values may be shown once.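 A five-concentration, 48-hour dose response in 96-well plates underlies each endpoint, interpolated linearly between surrounding concentrations. At the GI50, growth is halved. TGI denotes the concentration required for complete inhibition of growth.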 Peptide text beside a SMILES is read from it. * marks the point of attachment. Boc = CC(C)(C)OC(=O)*; OBn = c1ccc(CO*)cc1

Test system: NCI-H322M lung
Experiment: growth of human tumour cells (NCI), 48 h

Structure (SMILES)	GI50	TGI
Cc1cn2c(/C=N/N=C(N)N)c(-c3cc(Cl)sc3Cl)nc2s1	0.872 µM	2.86 µM
CCOC(=O)c1nc2cc(C(F)(F)F)ccc2nc1Oc1ccc(C(=O)OC)cc1	–	> 100 µM
N#CC1C(=O)NC2=C(CCOc3c2ccc2ccccc32)C1c1ccc(F)cc1 (centres undefined)	–	> 100 µM
CCOP(=O)(OCC)/C(C#N)=C/c1cc(O)ccc1O	–	> 100 µM
CC(C)C(NC(=O)CNC(=O)C1CCCN1C(=O)C(NC(=O)OC(C)(C)C)C(C)C)C(=O)NCC(=O)OCc1ccccc1 (centres undefined) (Boc-VPGVG-OBn; configuration not given here)	–	> 100 µM
CCN(CC)CCOCC1CCCN2CCCCC12 (centres undefined)	–	> 100 µM
O=[N+]([O-])c1cc(C(F)(F)F)ccc1S(=O)(=O)N[C@@H]1CCCC[C@H]1NS(=O)(=O)c1ccc(C(F)(F)F)cc1[N+](=O)[O-]	–	> 100 µM
O=C(Nn1c(-c2ccccc2)nc2ccccc2c1=O)c1ccc(O)cc1	–	> 100 µM
Cc1cccc2c1ccc1c3occ(C)c3c(=O)oc21	> 100 µM	> 100 µM
Cc1[nH]c2ccccc2c1C1=CC(=O)C=CC1=O	22.8 µM	60.8 µM
CN/N=C(/CC(=O)c1sc(-n2nc(-c3ccccc3)cc2-c2ccccc2)nc1C)C(=O)Nc1ccc(Cl)c(Cl)c1	–	> 100 µM
Cc1cc(=O)[nH]c(NN2C(Cl)C(=O)C2c2c(O)ccc3ccccc23)n1 (centres undefined)	–	> 100 µM
CC(=O)OCc1c(C)c2ccccc2n1C(C)=O	–	> 100 µM
COc1cc2c(cc1O)-c1c(OC)c(O)cc3c1C(C2)N(C)CC3 (centres undefined)	–	> 100 µM
CCOC(=O)NN(C(=O)OCC)C(C(=O)c1ccc(Cl)cc1)=C1NCCN1	–	> 100 µM
Cc1cccc(Nc2nc(NNC(=O)Cc3ccccc3)nc(NNC(=O)c3ccncc3)n2)c1	–	> 10 µM
COc1cccc2cc(-c3nc(C4CCC(C(=O)O)CC4)n4ncnc(N)c34)[nH]c12 (centres undefined)	0.156 µM and 0.345 µM	6.38 µM and > 10 µM
O=c1[nH]c(=O)n(C2OC(CO)C(O)C2O)cc1OCc1ccccc1 (centres undefined)	–	> 100 µM
N#CC(C#N)=Cc1ccc(Oc2ccccc2)cc1	–	> 100 µM
COc1cc(/C=C2/C(=O)N=C(NC(C)=O)N2C)ccc1OC(C)=O	–	> 100 µM
Nc1ncnc2c1c(C(=O)NO)cn2C1OC(CO)C(O)C1O (centres undefined)	0.465 µM	73.3 µM
Nc1ccc(-c2nc3ccc(Cc4ccc5nc(-c6ccc(N)cc6)oc5c4)cc3o2)cc1	–	> 100 µM
CCN1C(=O)C(N=[N+]=[N-])(c2ccccc2)C(=O)c2ccccc21 (centres undefined)	–	> 100 µM
CCC[CH2][Ge]([CH2]CCC)([CH2]CCC)[O]C(=O)C(OC(C)=O)c1ccccc1 (centres undefined)	3.64 µM	24.1 µM

Structure (SMILES)	GI50	TGI
Cc1cn(C2CC(N=[N+]=[N-])C(C(=O)O)O2)c(=O)[nH]c1=O (centres undefined)	–	> 100 µM
C[CH2][Sn]([Cl])([CH2]C)[CH2]C	2.21 µM	13.9 µM
CC(=O)[C@]1(C)[C@H](C)O[C@](C)(CO)[C@H]1O[Si](C)(C)c1ccccc1	–	> 100 µM
CC(C(=O)N1C(=O)N(C(=O)[C@H](C)C(O)c2ccccc2)[C@H](c2ccccc2)[C@H]1c1ccccc1)[C@@H](O)c1ccccc1 (some centres undefined)	–	> 100 µM
COc1cccc(N2C(=O)[C@H]3[C@H]4CC(C(C)(C)C)CC[C@H]4c4c([nH]c5ccccc45)[C@H]3C2=O)c1 (some centres undefined)	–	41 µM
COC(=O)C1=C(OC(=O)/C(=C/c2c(F)cccc2F)c2ccccc2)C(C(=O)OC)[C@@]2(O)[C@@H](C(=O)OC)[C@H](C)C[C@@H]1[C@@H]2C(=O)OC (some centres undefined)	–	> 100 µM
Nc1nc(Sc2ccc([N+](=O)[O-])cn2)c2[nH]cnc2n1	–	64.1 µM
C=CCCC(O)c1ccc(CCCCCCCCCCC)o1 (centres undefined)	18.7 µM	36.9 µM
O=C(O)c1nc2cc(C(F)(F)F)ccc2[nH]c1=O	–	> 100 µM
COc1cc(S(=O)(=O)Nc2ccc(-c3csc(/N=C\C=C\c4ccccc4)n3)cc2)ccc1Cl	–	> 100 µM
COc1ccc(C(=O)c2cc(OC)c(OC)c(OC)c2)cc1/C=C/C(=O)c1ccc2c(c1)OCO2	4.04 µM	> 100 µM
C/C=C/C=C\C(=O)C1c2cccc(O)c2C(=O)c2c(O)cc(C)cc21 (centres undefined)	–	3.38 µM
CCc1cccc(CC)c1NC(=O)c1ccn2c1CCc1cnc(Nc3ccc(N4CCN(C)CC4)cc3OC)nc1-2	3.1 µM	15.2 µM
COc1cc([N+](=O)[O-])c(OC)cc1-c1nc2n(c1/C(N)=N/C(=N)N)CCS2	> 100 µM	> 100 µM
COc1cc2c(cc1OC)C1(c3ccccc3)ON=C(c3ccccc3)N1CS2 (centres undefined)	–	> 100 µM
Cc1csc(-c2ccc3c(c2)COC3(CCCN(C)C)c2ccc(F)cc2)c1 (centres undefined)	1.69 µM	3.08 µM
CNC(=O)OCc1cc2ccncc2c2c1[nH]c1ccccc12	–	> 100 µM
CC(=O)Nc1ccc(S(=O)(=O)c2ccc(NC(C)=O)cc2)cc1	> 100 µM	> 100 µM
O=C1C(Cl)C(c2cccc(Br)c2)N1c1c(O)c(Cl)cc(Br)c1Cl (centres undefined)	–	29.1 µM
CS(=O)(=O)c1ccc(-c2[nH]c3ccc(F)cc3c2/C=N/NC(N)=S)cc1	13 µM	> 100 µM
Cc1cc2c(=O)c3ccccc3oc2c(C#N)c1C	–	> 100 µM
COC(=O)C(C(=O)C(=O)Nc1ccc([N+](=O)[O-])cc1)c1nc2cc(C)c(C)cc2[nH]c1=O (centres undefined)	–	> 100 µM
N#Cc1c(-c2ccccc2)c(C#N)c(=S)n(C2OCC(O)C(O)C2O)c1N (centres undefined)	–	> 100 µM
Nc1ccc(-c2nc3ccccc3s2)cc1F	–	> 100 µM

Structure (SMILES)	GI50	TGI
C[N+]1(CCCC[N+]2(C)CCCCCCC2)CCCCCCC1	–	> 100 µM
COc1cc(C(=O)Nc2cc(O)c(C/C=C(\C)CCC=C(C)C)c(O)c2)cc2c1O[C@]1(C)CC[C@@H](O)C(C)(C)[C@H]1C2	5.83 µM and 3.11 µM	17.1 µM
O=c1cc(-c2ccccc2)nc2cc(-c3ccco3)[nH]n12	10.6 µM	> 100 µM
CCCCCCCCCCCCCCC[C@@H](O)C[N+](C)(C)CCO	–	48.6 µM
O=C1C(Cl)=C(Nc2cccc(O)c2)C(=O)N1c1ccc(Cl)cc1Cl	23 µM	65.1 µM
CCN(CC)CCNc1ccc2ncn3c4c(OC)ccc(=O)c4c(O)c1c23	–	> 100 µM
Cc1cc(O)c(O)c(Oc2cc(C)cc(O)c2O)c1	–	> 100 µM
c1ccc(C2=NN[C@H](c3cn(-c4ccccc4)nc3-c3ccccc3)C2)cc1	3.81 µM	> 100 µM
CCCC(=O)[O-].CCCC(=O)[O-].N.N.N.N.[Co+3].[O-][Cl+3]([O-])([O-])[O-]	–	> 100 µM
CSc1n[nH]c2n[nH]c(C)c12	–	> 100 µM
COc1cc2c3c(c1OCc1ccccc1)NCCC3NCC2 (centres undefined)	–	> 100 µM
CC(=O)O[C@H]1CC[C@@]2(C)C(=CC[C@H]3[C@@H]4C/C(=C\c5ccncc5)[C@H](OC(C)=O)[C@@]4(C)CC[C@@H]32)C1	–	35.7 µM
O=C1CCCC(=O)C1C(=O)c1ccc(C(F)(F)F)cc1[N+](=O)[O-]	> 100 µM	> 100 µM
CCCCCCCCCCNC(=S)OCCCC	–	91.3 µM
ClCCCC1COc2ccccc2O1 (centres undefined)	–	> 100 µM
Nc1nc(NCC2(CO)CC(CCc3ccccc3)C2)cc(=O)[nH]1 (centres undefined)	–	> 100 µM
NC(N)=NCCCC(NCc1c2ccccc2[n+]([O-])c2ccccc12)C(=O)O (centres undefined)	–	> 100 µM
Cc1ccc(S(=O)(=O)NC(=O)C#CCOC2CCCCO2)cc1 (centres undefined)	–	> 100 µM
O=C(OC(CNc1c(C(=O)c2ccccc2)c(=O)n(Cc2ccccc2)c(=O)n1Cc1ccccc1)CN1CCCCC1)c1ccccc1 (centres undefined)	21.3 µM	55.4 µM
NS(=O)(=O)c1ccc(N=Nc2nc3[nH]cnc(=S)c3[nH]2)cc1	–	> 100 µM
Cc1ccc(C)c(N2C(=O)C(=O)c3c(C)ccc(C)c32)c1	–	> 100 µM
CNc1ccc(C(=O)CC(O)CCC(C)C2OC(=O)CC(O)CC(=O)CC(O)CC(O)CC(O)CC(O)CC3(O)CC(O)C(C(=O)NCCc4ccccn4)C(CC(OC4OC(C)C(O)C(N)C4O)/C=C/C=C/C=C/C=C\C=C/C=C/C=C/C2C)O3)cc1 (centres undefined)	0.188 µM	0.759 µM
Cc1ccc(C(O)/C(=N/N)c2nc3ccc([N+](=O)[O-])cc3[nH]c2=O)cc1 (centres undefined)	–	> 100 µM
COC(=O)c1c2c(cc3c1CC1(C3)Cc3ccc4c(c3C1=O)CCC4)CCC2 (centres undefined)	–	> 100 µM

Structure (SMILES)	GI50	TGI
CCOc1ccc(N=Nc2c(-c3ccccc3)nn(C(=O)CC(=O)Nc3cccc(C)c3)c2-c2ccccc2)cc1	–	> 100 µM
COC(=O)CCSC1=CC(=O)c2nc3ccccc3c3ccnc1c23	–	> 57 µM
CCN(CC)C(=O)N[C@@H](Cc1ccccc1)C(=O)NC	–	> 100 µM
O=C(NCCCCCCNC(=O)NC1OCC(O)C(O)C1O)NC1OCC(O)C(O)C1O (centres undefined)	–	> 100 µM
CNC(=O)c1c(NC(=O)c2ccc(C(C)C)cc2)sc2c1CCC(=O)C2	3.28 µM	> 34.1 µM
COc1ccc2cc(C(=O)/C=C/c3ccco3)ccc2c1	34.1 µM	92.3 µM
CCC(C)C(NC(=O)c1c2ccccc2nc2ccccc12)C(=O)O (centres undefined)	–	> 100 µM
COc1cc(/C=N/Nc2ncnc3c2cnn3Cc2ccccc2)ccc1O	15.6 µM	> 25 µM
COC(=O)C1=C(C)N(NC(=O)c2cccc(Cl)c2)C(C)(O)C12CCOC2=O (centres undefined)	–	> 100 µM
COc1cc2c(cc1OC)CN1CCc3ccccc3CC1C2 (centres undefined)	–	> 100 µM
CC(C)N(C(=O)c1ccc(NCc2cc(O)ccc2O)cc1)C(C)C	–	67.2 µM
CCOC(=O)NC(C(C(=O)OCC)C(=O)OCC)(C(F)(F)F)C(F)(F)F	–	> 100 µM
N#Cc1nc(C2SCCCS2)oc1N	–	> 100 µM
O=C1C2C3CCC(C2C(=O)N1CO)C1C2C(=O)N(CO)C(=O)C2C31 (centres undefined)	–	> 100 µM
COC(=O)c1cc(NC(=O)CN(CCN(CC(=O)O)CC(=O)Nc2ccc(O)c(C(=O)OC)c2)CC(=O)O)ccc1O	> 100 µM	> 100 µM
COc1cc(CCNc2nc3cc(N)cc(N)c3nc2-c2ccccc2)cc(OC)c1	3.75 µM	11.3 µM
C[C@]12CC/C(=N\OC(=O)Nc3ccccc3)C=C1CC[C@@H]1C2CC[C@@]2(C)C1CC[C@@H]2OC(=O)Nc1ccccc1 (some centres undefined)	–	> 100 µM
COc1ccc(CCN2COc3ccc4ccc(=O)oc4c3C2)cc1OC	–	> 100 µM
O=C(O)CP(=O)(c1ccccc1)c1ccccc1.O=C(O)CP(=O)(c1ccccc1)c1ccccc1.[Cd]	71.4 µM	> 100 µM
NCC(=O)NC(CO)C(=O)O (centres undefined)	–	> 100 µM
Cc1ccc(C(CC(=O)c2ccccc2)C(C(=O)c2ccccc2)C(c2ccc(C)cc2)C2C(=O)NC(=S)NC2=O)cc1 (centres undefined)	44.1 µM	> 50 µM
CCCN(CCC)c1ccc(/C=N/NC(=O)c2cccnc2)cc1	77 µM	> 100 µM
Cc1cc(S(=O)(=O)Nc2nc(N)nc(N(C)C)n2)c(SC(C(=O)O)c2ccccc2)cc1Cl (centres undefined)	–	> 10 µM
